Source: US20240076343A1

B1: 1H3-hIgG1-L6-hIL-2 (K43E/I92D) (protein)
heavy: EVQLVESGGGLVQPGRSLKLSCAVSGFTFSDYAMAWVRQAPKKGLEWVATISYDGSRTYYRDSVKGRFTISRDNAKITLYLQMDSLRSEDTATYYCARHGSGYFDYWGQGVMVTVSS[not shown - about 450 residues with a human IgG1 Fc and changes]
light: DTVLTQSPALAVSPGERVTISCRASESVRTGVHWYQQKPGQQPKLLIYGASNLESGVPARFSGSGSGTDFTLTIDPVEADDTATYFCQQSWNDPFTFGSGTKLEIKRTVAAPSVFIFPPSDEQLKSGTASVVCLLNNFYPREAKVQWKVDNALQSGNSQESVTEQDSKDSTYSLSSTLTLSKADYEKHKVYACEVTHQGLSSPVTKSFNRGEC
B2: 1H3-hIgG1-L6-hIL-2 (Y45R/I92D) (protein)
heavy: EVQLVESGGGLVQPGRSLKLSCAVSGFTFSDYAMAWVRQAPKKGLEWVATISYDGSRTYYRDSVKGRFTISRDNAKITLYLQMDSLRSEDTATYYCARHGSGYFDYWGQGVMVTVSS[not shown - about 450 residues with a human IgG1 Fc and changes]
light: B1 light
B3: 1H3-hIgG1-L6-hIL-2 (Y45K/I92D) (protein)
heavy: EVQLVESGGGLVQPGRSLKLSCAVSGFTFSDYAMAWVRQAPKKGLEWVATISYDGSRTYYRDSVKGRFTISRDNAKITLYLQMDSLRSEDTATYYCARHGSGYFDYWGQGVMVTVSS[not shown - about 450 residues with a human IgG1 Fc and changes]
light: B1 light
B4: 1H3-hIgG1-L6-hIL-2 (E62A/I92D) (protein)
heavy: EVQLVESGGGLVQPGRSLKLSCAVSGFTFSDYAMAWVRQAPKKGLEWVATISYDGSRTYYRDSVKGRFTISRDNAKITLYLQMDSLRSEDTATYYCARHGSGYFDYWGQGVMVTVSS[not shown - about 450 residues with a human IgG1 Fc and changes]
light: B1 light
B5: 1H3-hIgG1-L6-hIL-2 (E62Y/I92D) (protein)
heavy: EVQLVESGGGLVQPGRSLKLSCAVSGFTFSDYAMAWVRQAPKKGLEWVATISYDGSRTYYRDSVKGRFTISRDNAKITLYLQMDSLRSEDTATYYCARHGSGYFDYWGQGVMVTVSS[not shown - about 450 residues with a human IgG1 Fc and changes]
light: B1 light
B6: 1H3-hIgG1-L6-hIL-2 (L72D/I92D) (protein)
heavy: EVQLVESGGGLVQPGRSLKLSCAVSGFTFSDYAMAWVRQAPKKGLEWVATISYDGSRTYYRDSVKGRFTISRDNAKITLYLQMDSLRSEDTATYYCARHGSGYFDYWGQGVMVTVSS[not shown - about 450 residues with a human IgG1 Fc and changes]
light: B1 light
B7: 1H3-hIgG1-L6-hIL-2 (L72H/I92D) (protein)
heavy: EVQLVESGGGLVQPGRSLKLSCAVSGFTFSDYAMAWVRQAPKKGLEWVATISYDGSRTYYRDSVKGRFTISRDNAKITLYLQMDSLRSEDTATYYCARHGSGYFDYWGQGVMVTVSS[not shown - about 450 residues with a human IgG1 Fc and changes]
light: B1 light
B8: 1H3-hIgG1-L6-hIL-2 (L72R/I92D) (protein)
heavy: EVQLVESGGGLVQPGRSLKLSCAVSGFTFSDYAMAWVRQAPKKGLEWVATISYDGSRTYYRDSVKGRFTISRDNAKITLYLQMDSLRSEDTATYYCARHGSGYFDYWGQGVMVTVSS[not shown - about 450 residues with a human IgG1 Fc and changes]
light: B1 light
B9: 1H3-hIgG1-L6-hIL-2 (R38A/I92D) (protein)
heavy: EVQLVESGGGLVQPGRSLKLSCAVSGFTFSDYAMAWVRQAPKKGLEWVATISYDGSRTYYRDSVKGRFTISRDNAKITLYLQMDSLRSEDTATYYCARHGSGYFDYWGQGVMVTVSS[not shown - about 450 residues with a human IgG1 Fc and changes]
light: B1 light
B10: 1H3-hIgG1-L6-hIL-2 (R38E/N88R) (protein)
heavy: EVQLVESGGGLVQPGRSLKLSCAVSGFTFSDYAMAWVRQAPKKGLEWVATISYDGSRTYYRDSVKGRFTISRDNAKITLYLQMDSLRSEDTATYYCARHGSGYFDYWGQGVMVTVSS[not shown - about 450 residues with a human IgG1 Fc and changes]
light: B1 light
B11: 1H3-hIgG1-L6-hIL-2 (F42A/Y45R/D20A) (protein)
heavy: EVQLVESGGGLVQPGRSLKLSCAVSGFTFSDYAMAWVRQAPKKGLEWVATISYDGSRTYYRDSVKGRFTISRDNAKITLYLQMDSLRSEDTATYYCARHGSGYFDYWGQGVMVTVSS[not shown - human IgG1 constant region]SGGGGSAPTSSSTKKTQLQLEHLLLALQMILNGINNYKNPKLTRMLTAKFRMPKKATELKHLQCLEEELKPLEEVLNLAQSKNFHLRPRDLISNINVIVLELKGSETTFMCEYADETATIVEFLNRWITFCQSIISTLT
light: B1 light
B12: 1H3-hIgG1-L6-hIL-2 (F42H/Y45R/D20A) (protein)
heavy: EVQLVESGGGLVQPGRSLKLSCAVSGFTFSDYAMAWVRQAPKKGLEWVATISYDGSRTYYRDSVKGRFTISRDNAKITLYLQMDSLRSEDTATYYCARHGSGYFDYWGQGVMVTVSS[not shown - human IgG1 constant region]SGGGGSAPTSSSTKKTQLQLEHLLLALQMILNGINNYKNPKLTRMLTHKFRMPKKATELKHLQCLEEELKPLEEVLNLAQSKNFHLRPRDLISNINVIVLELKGSETTFMCEYADETATIVEFLNRWITFCQSIISTLT
light: B1 light
B13: 1H3-hIgG1-L6-hIL-2 (D20A/E95A/K43A) (protein)
heavy: EVQLVESGGGLVQPGRSLKLSCAVSGFTFSDYAMAWVRQAPKKGLEWVATISYDGSRTYYRDSVKGRFTISRDNAKITLYLQMDSLRSEDTATYYCARHGSGYFDYWGQGVMVTVSS[not shown - human IgG1 constant region]SGGGGSAPTSSSTKKTQLQLEHLLLALQMILNGINNYKNPKLTRMLTFAFYMPKKATELKHLQCLEEELKPLEEVLNLAQSKNFHLRPRDLISNINVIVLALKGSETTFMCEYADETATIVEFLNRWITFCQSIISTLT
light: B1 light
B14: 1H3-hIgG1-L6-hIL-2 (D20A/E95A/K43Q) (protein)
heavy: EVQLVESGGGLVQPGRSLKLSCAVSGFTFSDYAMAWVRQAPKKGLEWVATISYDGSRTYYRDSVKGRFTISRDNAKITLYLQMDSLRSEDTATYYCARHGSGYFDYWGQGVMVTVSS[not shown - human IgG1 constant region]SGGGGSAPTSSSTKKTQLQLEHLLLALQMILNGINNYKNPKLTRMLTFQFYMPKKATELKHLQCLEEELKPLEEVLNLAQSKNFHLRPRDLISNINVIVLALKGSETTFMCEYADETATIVEFLNRWITFCQSIISTLT
light: B1 light
B15: 1H3-hIgG1-L6-hIL-2 (D20A/E95A/Y45S) (protein)
heavy: EVQLVESGGGLVQPGRSLKLSCAVSGFTFSDYAMAWVRQAPKKGLEWVATISYDGSRTYYRDSVKGRFTISRDNAKITLYLQMDSLRSEDTATYYCARHGSGYFDYWGQGVMVTVSS[not shown - human IgG1 constant region]SGGGGSAPTSSSTKKTQLQLEHLLLALQMILNGINNYKNPKLTRMLTFKFSMPKKATELKHLQCLEEELKPLEEVLNLAQSKNFHLRPRDLISNINVIVLALKGSETTFMCEYADETATIVEFLNRWITFCQSIISTLT
light: B1 light
B16: 1H3-hIgG1-L6-hIL-2 (D20A/E95A/L72Y) (protein)
heavy: EVQLVESGGGLVQPGRSLKLSCAVSGFTFSDYAMAWVRQAPKKGLEWVATISYDGSRTYYRDSVKGRFTISRDNAKITLYLQMDSLRSEDTATYYCARHGSGYFDYWGQGVMVTVSS[not shown - human IgG1 constant region]SGGGGSAPTSSSTKKTQLQLEHLLLALQMILNGINNYKNPKLTRMLTFKFYMPKKATELKHLQCLEEELKPLEEVLNYAQSKNFHLRPRDLISNINVIVLALKGSETTFMCEYADETATIVEFLNRWITFCQSIISTLT
light: B1 light
B17: 1H3-hIgG1-L6-hIL-2 (D20A/E95A/L72A) (protein)
heavy: EVQLVESGGGLVQPGRSLKLSCAVSGFTFSDYAMAWVRQAPKKGLEWVATISYDGSRTYYRDSVKGRFTISRDNAKITLYLQMDSLRSEDTATYYCARHGSGYFDYWGQGVMVTVSS[not shown - human IgG1 constant region]SGGGGSAPTSSSTKKTQLQLEHLLLALQMILNGINNYKNPKLTRMLTFKFYMPKKATELKHLQCLEEELKPLEEVLNAAQSKNFHLRPRDLISNINVIVLALKGSETTFMCEYADETATIVEFLNRWITFCQSIISTLT
light: B1 light
B18: 1H3-hIgG1-L6-hIL-2 (D20A/E95A/L72F) (protein)
heavy: EVQLVESGGGLVQPGRSLKLSCAVSGFTFSDYAMAWVRQAPKKGLEWVATISYDGSRTYYRDSVKGRFTISRDNAKITLYLQMDSLRSEDTATYYCARHGSGYFDYWGQGVMVTVSS[not shown - human IgG1 constant region]SGGGGSAPTSSSTKKTQLQLEHLLLALQMILNGINNYKNPKLTRMLTFKFYMPKKATELKHLQCLEEELKPLEEVLNFAQSKNFHLRPRDLISNINVIVLALKGSETTFMCEYADETATIVEFLNRWITFCQSIISTLT
light: B1 light

Target: high-affinity hIL-2 receptor (IL-2Rαβγ) on NK-92 cells (human) (UniProt P01589)
Sequence of UniProt P01589 (P01589 22-272, chain 1 of 3): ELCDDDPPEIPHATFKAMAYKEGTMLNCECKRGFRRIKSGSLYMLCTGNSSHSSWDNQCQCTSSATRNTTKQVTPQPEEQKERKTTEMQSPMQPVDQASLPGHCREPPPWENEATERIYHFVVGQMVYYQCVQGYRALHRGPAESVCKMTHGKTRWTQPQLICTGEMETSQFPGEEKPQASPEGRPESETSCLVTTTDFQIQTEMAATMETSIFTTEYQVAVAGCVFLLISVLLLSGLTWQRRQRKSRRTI
Sequence of UniProt P01589 (chain, as listed by the source, chain 2 of 3): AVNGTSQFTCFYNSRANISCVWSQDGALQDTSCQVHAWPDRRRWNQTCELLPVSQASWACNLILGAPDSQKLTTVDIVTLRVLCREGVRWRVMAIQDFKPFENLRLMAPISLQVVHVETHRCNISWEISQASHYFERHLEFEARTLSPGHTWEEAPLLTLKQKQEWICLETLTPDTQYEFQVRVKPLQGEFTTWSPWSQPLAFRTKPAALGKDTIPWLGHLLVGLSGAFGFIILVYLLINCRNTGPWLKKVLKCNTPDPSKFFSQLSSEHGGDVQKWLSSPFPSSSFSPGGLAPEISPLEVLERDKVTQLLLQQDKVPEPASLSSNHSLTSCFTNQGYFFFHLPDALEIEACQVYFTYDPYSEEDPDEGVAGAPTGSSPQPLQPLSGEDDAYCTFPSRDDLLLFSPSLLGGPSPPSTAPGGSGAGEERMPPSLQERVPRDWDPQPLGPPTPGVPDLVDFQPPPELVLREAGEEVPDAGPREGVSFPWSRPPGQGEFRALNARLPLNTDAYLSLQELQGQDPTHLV
Sequence of UniProt P01589 (chain, as listed by the source, chain 3 of 3): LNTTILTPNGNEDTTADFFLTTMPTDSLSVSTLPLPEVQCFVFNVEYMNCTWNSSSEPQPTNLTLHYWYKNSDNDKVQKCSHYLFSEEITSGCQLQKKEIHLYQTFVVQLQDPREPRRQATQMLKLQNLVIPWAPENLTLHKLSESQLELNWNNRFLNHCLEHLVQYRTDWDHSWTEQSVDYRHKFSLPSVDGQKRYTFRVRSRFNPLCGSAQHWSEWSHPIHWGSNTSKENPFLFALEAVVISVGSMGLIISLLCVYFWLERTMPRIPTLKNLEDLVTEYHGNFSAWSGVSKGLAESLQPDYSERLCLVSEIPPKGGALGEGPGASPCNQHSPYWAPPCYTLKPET
Experiment: cell-based or functional assay

Binder | Fold change from hIL-2 (NK-92) [fold]
B1 | 13
B2 | 13
B3 | 13
B4 | 13
B5 | 14
B6 | 14
B7 | 14
B8 | 14
B9 | 13
B10 | 16
B11 | 11
B12 | 12
B13 | 5
B14 | 5
B15 | 5
B16 | 1
B17 | 2
B18 | 2

Target: intermediate affinity hIL-2 receptor complex (IL-2Rβγ) on TF1+IL-2Rβ cells (human) (UniProt P14784)
Sequence of UniProt P14784 (P14784 27-551, chain 1 of 2): as the sequence (chain, as listed by the source, chain 2 of 3) above
Sequence of UniProt P14784 (chain, as listed by the source, chain 2 of 2): as the sequence (chain, as listed by the source, chain 3 of 3) above
Experiment: cell-based or functional assay

Binder | Fold change from hIL-2 (TF1 + IL-2Rβ) [fold]
B1 | 4
B2 | 1
B3 | 1
B4 | 3
B5 | 5
B6 | 5
B7 | 5
B8 | 5
B9 | 4
B10 | 1
B11 | 2
B12 | 2
B13 | 7
B14 | 6
B15 | 6
B16 | 5
B17 | 6
B18 | 6
